Experimental data as given in PMC11995724, “Antibiotic target discovery by integrated phenotypic and activity-based profiling of electrophilic fragments” (Cell chemical biology, 2025).
Among all 3,200 compounds or so, about 110 (3.4%) showed an effect of 50% or more. Some of the results follow.

test system: T1, V. cholerae SAD30; parameters: species or system S. aureus MSSA476 (TSB) or V. cholerae SAD30 (LB); 384-well bacterial growth screen at 25 uM, OD600 relative to DMSO control; conditions: relative growth, OD600, LB; 25 µM; inhibitor
T1 construct: SAD30

In order of falling “% of control remaining” value:
1. O=C(CCl)NCc1ccccc1S(=O)(=O)N1CCOCC1 [4-F22, 2-chloro-N-{[2-(morpholine-4-sulfonyl)phenyl]methyl}acetamide]  115.247%
2. COc1ccc(C(=O)CCl)c(OC)c1 [10-G18, 2-chloro-1-(2,4-dimethoxyphenyl)ethan-1-one]  111.748%
3. O=C(CCl)Nc1ccc(Cl)c(S(=O)(=O)N2CCCCC2)c1 [4-P14, 2-chloro-N-[4-chloro-3-(piperidine-1-sulfonyl)phenyl]acetamide]  110.589%
4. C=CC(=O)N(CC)CC(=O)N1CCC(c2nnc(C)o2)CC1 [3-A08, N-ethyl-N-{2-[4-(5-methyl-1,3,4-oxadiazol-2-yl)piperidin-1-yl]-2-oxoethyl}prop-2-enamide]  109.557%
5. C=CC(=O)NC(C)c1ccc(-n2nc(C)cc2C)c(F)c1 (stereo not drawn) [3-P17, N-{1-[4-(3,5-dimethyl-1H-pyrazol-1-yl)-3-fluorophenyl]ethyl}prop-2-enamide]  107.616%
6. O=C(CCl)N1CCN(Cc2ccon2)CC1 [5-O04, 2-chloro-1-{4-[(1,2-oxazol-3-yl)methyl]piperazin-1-yl}ethan-1-one]  105.411%
7. Cc1nn(C)c(C)c1CN(C(=O)CCl)C1CCCCC1C (stereo not drawn) [5-A14, 2-chloro-N-(2-methylcyclohexyl)-N-[(1,3,5-trimethyl-1H-pyrazol-4-yl)methyl]acetamide]  105.243%
8. CC(=O)N1CCC(N(Cc2cncs2)C(=O)C(C)Cl)CC1 (stereo not drawn) [5-H21, N-(1-acetylpiperidin-4-yl)-2-chloro-N-[(1,3-thiazol-5-yl)methyl]propanamide]  104.235%
9. Cc1nn(C)c(C)c1C=C(C#N)C(=O)Nc1ccc2c(c1)OCCO2 [9-D03, 2-cyano-N-(2,3-dihydro-1,4-benzodioxin-6-yl)-3-(1,3,5-trimethyl-1H-pyrazol-4-yl)prop-2-enamide]  104.079%
10. C=CC(=O)NC(C)Cn1cc(C(=O)O)cn1 (stereo not drawn) [3-D10, 1-[2-(prop-2-enamido)propyl]-1H-pyrazole-4-carboxylic acid]  102.5%
11. O=C(CCl)NC1CC(=O)N(c2cccc(C(F)(F)F)c2)C1 (stereo not drawn) [5-E09, 2-chloro-N-{5-oxo-1-[3-(trifluoromethyl)phenyl]pyrrolidin-3-yl}acetamide]  100.2%
12. CC(C)C(=O)Nc1ccc(C(=O)C(C)Cl)cc1 (stereo not drawn) [10-E08, N-[4-(2-chloropropanoyl)phenyl]-2-methylpropanamide]  100.058%
13. C=CC(=O)N(C)CC(=O)N1CCCc2ccccc21 [3-D15, N-methyl-N-[2-oxo-2-(1,2,3,4-tetrahydroquinolin-1-yl)ethyl]prop-2-enamide]  99.853%
14. CC(NC(=O)CCl)C(=O)Nc1ccc(Cl)cc1 (stereo not drawn) [5-G11, 2-(2-chloroacetamido)-N-(4-chlorophenyl)propanamide]  99.0228%
15. COc1ccccc1C1CSCCCN1C(=O)CCl (stereo not drawn) [5-O16, 2-chloro-1-[3-(2-methoxyphenyl)-1,4-thiazepan-4-yl]ethan-1-one]  97.0054%
16. CC(Cl)C(=O)NCC1CCCCC1 (stereo not drawn) [4-I10, 2-chloro-N-(cyclohexylmethyl)propanamide]  96.6142%
17. C=CC(=O)NCC1CS(=O)(=O)c2ccccc2O1 (stereo not drawn) [3-N17, N-[(4,4-dioxo-2,3-dihydro-1,4lambda6-benzoxathiin-2-yl)methyl]prop-2-enamide]  95.7949%
18. CC(Cl)C(=O)N1CCOCC1 (stereo not drawn) [5-H09, 2-chloro-1-(morpholin-4-yl)propan-1-one]  95.6604%
19. O=C(CCl)NC(Cn1cncn1)c1ccccc1 (stereo not drawn) [7-N03, 2-chloro-N-[1-phenyl-2-(1H-1,2,4-triazol-1-yl)ethyl]acetamide]  95.1594%
20. CC(Cl)C(=O)NC1CC(C)N(c2ccccc2)C1=O (stereo not drawn) [5-B19, 2-chloro-N-(5-methyl-2-oxo-1-phenylpyrrolidin-3-yl)propanamide]  94.3154%
21. C=CC(=O)N(C)CC(=O)N1CCC(c2nc3c(s2)CCCC3)CC1 [2-N04, N-methyl-N-{2-oxo-2-[4-(4,5,6,7-tetrahydro-1,3-benzothiazol-2-yl)piperidin-1-yl]ethyl}prop-2-enamide]  91.8942%
22. N#CC(=Cc1ccc(C#N)cc1)C(=O)Nc1ccc(F)c(Cl)c1 [9-A22, N-(3-chloro-4-fluorophenyl)-2-cyano-3-(4-cyanophenyl)prop-2-enamide]  91.8423%
23. C=CC(=O)N(CC)Cc1cn(C)nn1 [2-O09, N-ethyl-N-[(1-methyl-1H-1,2,3-triazol-4-yl)methyl]prop-2-enamide]  91.5854%
24. COc1ccc(C=C(C#N)C(=O)Nc2ccc(C(=O)O)cc2)cc1C [9-G14, 4-[2-cyano-3-(4-methoxy-3-methylphenyl)prop-2-enamido]benzoic acid]  90.8906%
25. CC(=Cc1ccccc1)C=C(C#N)C(=O)Nc1ccc2c(c1)OCCO2 [9-J07, 2-cyano-N-(2,3-dihydro-1,4-benzodioxin-6-yl)-4-methyl-5-phenylpenta-2,4-dienamide]  90.6186%
26. C=CC(=O)N1CCC(c2nc(N(C)C)no2)CC1 [2-K09, 1-{4-[3-(dimethylamino)-1,2,4-oxadiazol-5-yl]piperidin-1-yl}prop-2-en-1-one]  90.5047%
27. C=CC(=O)NC1CCC(F)(F)CC1F (stereo not drawn) [1-E11, N-(2,4,4-trifluorocyclohexyl)prop-2-enamide]  90.4335%
28. C=CC(=O)NCc1ccnn1CC(F)(F)F [1-O18, N-{[1-(2,2,2-trifluoroethyl)-1H-pyrazol-5-yl]methyl}prop-2-enamide]  89.8356%
29. Cc1nccn1Cc1ccc(NC(=O)C(C#N)=Cc2ccco2)cc1 [9-H12, 2-cyano-3-(furan-2-yl)-N-{4-[(2-methyl-1H-imidazol-1-yl)methyl]phenyl}prop-2-enamide]  89.8029%
30. C=CC(=O)NCCCN1CCCS1(=O)=O [3-H19, N-[3-(1,1-dioxo-1lambda6,2-thiazolidin-2-yl)propyl]prop-2-enamide]  89.796%
31. C=CC(=O)Nc1ccc(C(N)=O)nc1OC [1-E18, 6-methoxy-5-(prop-2-enamido)pyridine-2-carboxamide]  89.6861%
32. C=CC(=O)N1CCC(C(=O)N2CCN(c3ccnc(C)n3)CC2)CC1 [2-L06, 1-{4-[4-(2-methylpyrimidin-4-yl)piperazine-1-carbonyl]piperidin-1-yl}prop-2-en-1-one]  88.9607%
33. C=CC(=O)NC1(c2ccccc2)CCCC1 [1-O15, N-(1-phenylcyclopentyl)prop-2-enamide]  88.7892%
34. CC(Cl)C(=O)NCC1(n2ccnn2)CC1 (stereo not drawn) [6-B20, 2-chloro-N-{[1-(1H-1,2,3-triazol-1-yl)cyclopropyl]methyl}propanamide]  88.7288%
35. CC(Cl)C(=O)NC(c1cccs1)c1cccs1 (stereo not drawn) [6-L21, N-[bis(thiophen-2-yl)methyl]-2-chloropropanamide]  87.6671%
36. C=CC(=O)NCc1coc(-c2ccc(C)cc2)n1 [2-F13, N-{[2-(4-methylphenyl)-1,3-oxazol-4-yl]methyl}prop-2-enamide]  87.4168%
37. C=CC(=O)N1CC[C@H](Oc2ccccc2)C1 [3-I18, 1-[(3S)-3-phenoxypyrrolidin-1-yl]prop-2-en-1-one]  86.6201%
38. C[C@H]1CN(C(=O)CCl)CCN1C(=O)c1cscn1 [5-L05, 2-chloro-1-[(3S)-3-methyl-4-(1,3-thiazole-4-carbonyl)piperazin-1-yl]ethan-1-one]  86.0775%
39. N#CC(=Cc1ccccc1OCc1ccccc1)C(=O)NC(N)=O [8-F05, (2-{[2-(benzyloxy)phenyl]methylidene}-2-cyanoacetyl)urea]  82.053%
40. CC(Cl)C(=O)Nc1ccc(OCc2ccccc2)cc1 (stereo not drawn) [6-O13, N-[4-(benzyloxy)phenyl]-2-chloropropanamide]  80.8418%
41. CC(=O)Nc1ccc(NC(=O)C(C#N)=Cc2cc(F)ccc2F)cc1 [8-C12, 2-cyano-3-(2,5-difluorophenyl)-N-(4-acetamidophenyl)prop-2-enamide]  75.2549%
42. CC(Cl)C(=O)N1CCC(c2nc3cc(F)ccc3s2)CC1 (stereo not drawn) [6-J18, 2-chloro-1-[4-(5-fluoro-1,3-benzothiazol-2-yl)piperidin-1-yl]propan-1-one]  72.0447%
43. CC(C)Oc1ccccc1C=C(C#N)C(=O)Nc1ccccc1 [8-M17, 2-cyano-N-phenyl-3-[2-(propan-2-yloxy)phenyl]prop-2-enamide]  71.312%
44. COc1cc(Cl)ccc1CNC(=O)C(C#N)=Cc1ccco1 [9-E18, N-[(4-chloro-2-methoxyphenyl)methyl]-2-cyano-3-(furan-2-yl)prop-2-enamide]  69.0007%
45. N#CC(=Cc1c(Cl)cccc1Cl)C(=O)NCCc1ccccc1 [8-B14, 2-cyano-3-(2,6-dichlorophenyl)-N-(2-phenylethyl)prop-2-enamide]  61.1149%
